We go through one molecule from EP4628512A1 (Innovent Biologics (Suzhou) Co., Ltd., dated 2025).

The target in assay [1] is T1, human Ang2 (Beijing Sino Biological) (human, UniProt O15123 19-496, limits assumed).
T1 construct: Antigen of the BLI and SPR experiments; also called angiopoietin 2; ANGPT2
T1 sequence (looked up): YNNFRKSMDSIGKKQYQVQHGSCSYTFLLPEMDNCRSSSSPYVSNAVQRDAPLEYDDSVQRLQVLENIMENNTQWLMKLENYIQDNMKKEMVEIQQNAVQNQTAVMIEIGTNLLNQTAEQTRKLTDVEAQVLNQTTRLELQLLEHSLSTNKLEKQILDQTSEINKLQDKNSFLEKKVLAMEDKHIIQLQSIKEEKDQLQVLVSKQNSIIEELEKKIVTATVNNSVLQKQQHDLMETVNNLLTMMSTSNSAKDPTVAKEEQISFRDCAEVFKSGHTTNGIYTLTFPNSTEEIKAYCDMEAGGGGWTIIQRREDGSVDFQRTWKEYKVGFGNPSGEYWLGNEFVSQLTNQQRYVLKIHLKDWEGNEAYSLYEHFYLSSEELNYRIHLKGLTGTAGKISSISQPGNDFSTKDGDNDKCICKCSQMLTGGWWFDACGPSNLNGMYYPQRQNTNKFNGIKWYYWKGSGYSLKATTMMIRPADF
As to the kind of experiment: SPR (Biacore T200), CM5 chip, bivalent binding, 1:1 binding model.

For another assay, the target named is T2, human VEGF165 (R&D) (human, UniProt P15692-4 27-191).
T2 construct: also called VEGFA; human VEGFA
T2 sequence (looked up): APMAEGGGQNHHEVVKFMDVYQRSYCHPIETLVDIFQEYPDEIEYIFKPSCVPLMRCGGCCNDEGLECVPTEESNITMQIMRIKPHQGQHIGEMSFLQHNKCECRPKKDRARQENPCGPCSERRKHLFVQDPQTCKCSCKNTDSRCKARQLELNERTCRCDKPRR
As to the kind of experiment: SPR (Biacore T200), CM5 chip, 1:1 binding model.

The next assay has as its target T3, human VEGFC (R&D) (human, UniProt P49767 103-227).
T3 construct: also called hVEGFC; recombinant human VEGFC protein
T3 sequence (looked up): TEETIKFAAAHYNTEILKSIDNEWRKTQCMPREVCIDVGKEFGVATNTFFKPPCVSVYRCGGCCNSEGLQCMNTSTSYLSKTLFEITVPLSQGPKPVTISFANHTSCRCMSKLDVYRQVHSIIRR
As to the kind of experiment: SPR (Biacore T200), CM5 chip, bivalent binding, 1:1 binding model.

B1: IAR044-019 (Fc fusion)
chain: EVQLLESGGGLVQPGGSLRLSCAASGFALDYYAIGWFRQAPGKGLEGVSCISSGEGSTYYADSVKGRFTISRDNSKNTVYLQMNSLRAEDTAVYYCATDSRGDDVACEGLRRNEYDYWGQGTLVTVSSGRPGSGRPGSSDTGRPFVEMYSEIPEIIHMTEGRELVIPCRVTSPNITVTLKKFPLDTLIPDGKRIIWDSRKGFIISNATYKEIGLLTCEATVNGHLYKTNYLTHRQTNTIIDVVLSPSHGIELSVGEKLVLNCTARTELNVGIDFNWEYPSSKHQHKKLVNRDLKTQSGSEMKKFLSTLTIDGVTRSDQGLYTCAASSGLMTKKNSTFVRVHEK[gap - human IgG1 Fc]RPGSGRPGSEVQLVESGGGLVQPGGSLRLSCAASGSSFSPYAMGWYRQAPGKQRELVSATSEGGFTLYADSVKGRFTISRDNSKNTVYLQMNSLRAEDTAVYYCYMHWRGSDPENYWGQGTQVTVSS
notes: Single polypeptide: anti-Ang2 VHH, linker, VEGFA mini-Trap (VEGFR1 domain 2 + VEGFR2 domain 3), Fc, linker, anti-VEGFC VHH; also called anti-VEGFA/VEGFC/Ang2 multi-specific fusion protein
Turning to B1, in assay [1], the Kd turned out to be 0.0556 nM, the koff worked out at 3.3e-05 s⁻¹ and the kon came out at 594000 M⁻¹ s⁻¹. In the assay with human VEGF165 (R&D), this molecule yielded a koff of 4.94e-05 s⁻¹ and a kon of 5.34e+07 M⁻¹ s⁻¹. For the same molecule, in the assay with human VEGFC (R&D), the Kd was below 0.0178 nM, the koff is below 1e-05 s⁻¹ and the on-rate (kon) was found to be 562000 M⁻¹ s⁻¹.
